The BET-seq Pho4 binding data (Le et al. 2018)
The list shows a part of the results. The energies were worked out here from pooled read counts, against the library average; single values are noisy.

Target: T1, Pho4 (S. cerevisiae) (UniProt P07270)
T1 sequence: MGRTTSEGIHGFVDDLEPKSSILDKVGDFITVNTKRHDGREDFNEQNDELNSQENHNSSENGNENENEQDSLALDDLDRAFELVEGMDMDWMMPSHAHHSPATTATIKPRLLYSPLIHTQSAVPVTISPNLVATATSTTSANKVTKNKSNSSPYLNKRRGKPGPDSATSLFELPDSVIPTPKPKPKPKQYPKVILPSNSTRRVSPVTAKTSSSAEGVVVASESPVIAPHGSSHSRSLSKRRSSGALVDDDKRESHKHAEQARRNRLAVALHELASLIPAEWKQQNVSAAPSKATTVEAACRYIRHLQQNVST
Assay: relative binding free energy (BET-seq); higher = weaker binding
Details: reference: library average

Sequence	relative binding free energy [kcal/mol]
TTACGCACGTGTTGGA	-0.24
GTATGCACGTGAACGG	0.1
TTTGGCACGTGGACGT	-0.15
ATGGTCACGTGGAGAG	0.18
TGTAACACGTGAGGAA	0.21
AGGGCCACGTGGGAGT	-0.09
GGTGTCACGTGGAAAT	0.35
AAGGGCACGTGAGGTT	0.15
AGGAACACGTGGCGGG	0.05
GGGTACACGTGGTTTG	0.05
TTCTGCACGTGCTGTG	-0.04
TGACGCACGTGTCGGT	-0.12
TACAGCACGTGAGTGT	0.15
ATGGGCACGTGTGTCA	-0.16
GGAAACACGTGCGGGT	0.14
GGTATCACGTGAATGG	0.44
TCGTGCACGTGTCTGG	-0.04
GTAATCACGTGAATGT	0.33
TTCGGCACGTGTAAGT	0.12
AGCAGCACGTGTTTTG	-0.07
CGTGCCACGTGCGGGT	-0.11
TGATACACGTGTGGGC	0.15
TGGTCCACGTGGCTGT	-0.18
TGTGACACGTGATAGA	0.11
CTTGGCACGTGTGAAT	0.03
CGAGACACGTGGTTTG	0.16

Sequence	relative binding free energy [kcal/mol]
GGGGTCACGTGACTTA	0.32
GGTATCACGTGGCTGC	0.29
CTAATCACGTGTGGTT	0.06
TTAGGCACGTGAGATA	0.16
TAGTTCACGTGGTGGA	0.3
TTTCTCACGTGTTGAT	0.23
CGGCACACGTGGGCGG	0
TAGTGCACGTGTCTAG	0.09
TTTCGCACGTGCAGTG	-0.03
GTTTTCACGTGAGCTA	0.33
GGGGCCACGTGATGGA	0.2
TACGGCACGTGTTGGG	-0.02
GAGGGCACGTGTTCGG	-0.22
TGGAGCACGTGGGTTA	-0.17
GGCGACACGTGGGGTT	-0.05
GGTGTCACGTGGCCAG	-0.02
AGGATCACGTGCGGGG	0.1
TGATGCACGTGTCGAT	-0.04
TAGGGCACGTGCGTCT	-0.07
CTTGGCACGTGTGTGG	-0.08
TTTGTCACGTGGACGC	0
TGTACCACGTGAGTGT	0.14
AATGGCACGTGAAGGA	0.14
GGTGGCACGTGAAGTG	0.27
TTCTACACGTGCTGGG	0
ATAGTCACGTGTAAAG	0.14

Sequence	relative binding free energy [kcal/mol]
TTAGGCACGTGCTGTC	-0.21
CTCGGCACGTGGGAGT	-0.24
TTCTGCACGTGTAATG	0.03
TCGGGCACGTGGGTCT	-0.19
GAGTACACGTGTGGTT	0.15
CTGTTCACGTGCGGAG	0.2
GTCGTCACGTGGGAGC	0.05
GTGAACACGTGTGGGC	0.08
TTTGGCACGTGTCTGT	-0.11
ATATTCACGTGGATGG	0.2
TTAATCACGTGTTAGG	0.16
TTATACACGTGTAGCT	0.1
CGGTTCACGTGTTATG	0.08
TATGGCACGTGAAAAA	0.3
AGGTACACGTGTTAAG	0.1
GTGCTCACGTGTTGGG	0.31
AAAGACACGTGTTTTG	0.01
GCGTGCACGTGTTGAT	-0.15
GTGGACACGTGTATGG	0.21
GGAAACACGTGTGGGC	0.05
GAAGGCACGTGGCGGG	-0.25
GCTCTCACGTGTTGGG	0.33
TACGGCACGTGTGGAA	0.03
TACTTCACGTGATGTG	0.16
TTCTTCACGTGAAGTA	0.32
CATGTCACGTGTTAAG	0.17

Sequence	relative binding free energy [kcal/mol]
TGTTGCACGTGCGAGA	0.11
ATTAACACGTGGCTTT	-0.1
TGGGACACGTGAGAGC	0.22
TCTTGCACGTGGCGTT	-0.15
AACGGCACGTGCTGGG	-0.16
GCGTGCACGTGATGGG	0.12
TATTGCACGTGGGATA	-0.13
TTCGGCACGTGTTAGA	-0.05
TTGAACACGTGTGTCA	0.08
TAAGGCACGTGAAGGG	0.12
AAGAGCACGTGAGAGG	0.04
TATGGCACGTGTTTTA	-0.09
AATGGCACGTGCGGCT	-0.03
GGTTTCACGTGGGCCA	0.21
CGTGGCACGTGCAGAG	0
GTTGTCACGTGGTCTG	0.02
ATTAGCACGTGGGTTC	-0.21
TATGACACGTGGCGTG	-0.12
GTTGACACGTGTGGAG	0.23
AGGTTCACGTGCGGCT	0.2
TTTTACACGTGGTCTT	0.14
GTTCTCACGTGGTTTA	0.27
TTCTGCACGTGTCAGG	0.05
TGAAGCACGTGTAGCG	0
ATTTTCACGTGGTAAT	0.3
TGCTGCACGTGCATGG	-0.02

Sequence	relative binding free energy [kcal/mol]
TAATGCACGTGTCTGG	0.03
CTGGTCACGTGGGTTT	0.03
TGTCACACGTGTGCGG	0
TGGTGCACGTGAGTTT	0.2
AATGTCACGTGGCATT	0
AGTTCCACGTGATGTA	0.16
AAATTCACGTGTAGCG	0.38
TAGGTCACGTGAACGG	0.35
GAGTTCACGTGGTTTG	0.31
GGGTTCACGTGCGGAC	0.25
CGAGGCACGTGCGGTA	-0.18
TGTTTCACGTGGTTCA	0.22
TTATGCACGTGGGTAG	-0.17
ACGTACACGTGGTTGT	-0.06
TAAGTCACGTGTGGAG	0.11
TGGTTCACGTGGGGCC	0.07
GATTACACGTGCGTGG	0.17
GTTAGCACGTGTTCTT	0.07
TTGTGCACGTGGAATT	-0.01
GAAGTCACGTGAGGTG	0.29
CGAGGCACGTGGGCGT	-0.19
AACGTCACGTGAGGTT	0.2
CGATTCACGTGGGTAT	0.13
ATAGTCACGTGAATGT	0.2
CGTAGCACGTGTCGGG	-0.03
TGTAGCACGTGGGAAC	-0.11

Sequence	relative binding free energy [kcal/mol]
TGTTTCACGTGTTAAA	0.23
ATTGGCACGTGTATCG	-0.09
TCTGGCACGTGGTTAA	-0.14
GTGGGCACGTGCGACG	-0.07
TGGTCCACGTGTTTGA	0.07
TAGTGCACGTGGATGC	0.04
CGGTGCACGTGATGGA	-0.01
TGATTCACGTGGTAGG	0.19
ATGTTCACGTGCTGTG	0.24
TTGGTCACGTGGATAA	0.11
TTTCTCACGTGCTTTT	0.27
CGAATCACGTGTGTGG	0.14
GTTTGCACGTGAACGG	0.21
GCTAGCACGTGGCGGT	-0.11
GGAGACACGTGTATTG	0.06
TGTTACACGTGGTTGG	-0.03
CGTTTCACGTGCGGTT	0.35
GGTAGCACGTGTACTT	0.15
TGTGGCACGTGATTGG	-0.05
TTGGCCACGTGGGGGA	-0.12
GGTTCCACGTGCGTTT	0.04
TGCCACACGTGCGGGG	0.04
TTCTGCACGTGTGTAA	-0.02
AAGGGCACGTGTACGG	-0.01
TGCAGCACGTGTTGGG	-0.11
AGGGCCACGTGTATAG	0.01

Sequence	relative binding free energy [kcal/mol]
TTTGTCACGTGTTTCG	0.13
AAATGCACGTGATGTG	0.03
AATGTCACGTGTAGGG	0.19
ACTTACACGTGGGGTG	-0.19
TGCGGCACGTGAAGGG	0.09
TGTGACACGTGTCGAG	0.1
GTATACACGTGTATGG	0.12
TGCGCCACGTGGTGAG	-0.12
TTATGCACGTGTCAGT	-0.05
TTGAACACGTGCGGTA	-0.12
GGCCGCACGTGTTAGT	0.09
ATTTACACGTGACGGT	0.13
TAAATCACGTGCTGTT	0.04
GGCCTCACGTGGGGGC	-0.02
ACGTACACGTGAGGTT	0.25
GTTAGCACGTGCGGGG	-0.13
GTATGCACGTGTTTCA	-0.06
CGTTACACGTGGGGGG	-0.07
GTTTGCACGTGTAGGT	0.05
GACGTCACGTGCGTGG	0.17
GTGAACACGTGAAGTG	0.31
AGGTACACGTGCGCGG	-0.11
TGTAACACGTGATTGT	0.14
CGACGCACGTGGAGGG	-0.1
TTAGTCACGTGCGTCA	-0.01
CTGAGCACGTGGTGTG	-0.15

Sequence	relative binding free energy [kcal/mol]
TTTGACACGTGTAGGG	-0.16
ATTCGCACGTGGGGGC	-0.08
TTGAGCACGTGGGCAA	-0.17
GGTTACACGTGGGATG	0.16
GTGGGCACGTGATTCG	0.12
TGTATCACGTGGTTTC	0.18
GGTGGCACGTGTCGGA	0.02
CATTTCACGTGGTAGT	0.27
TGCTGCACGTGTAAGG	0.11
TACAGCACGTGGATGG	0.09
GAGAGCACGTGGGCAT	-0.24
GGAGGCACGTGGGTCT	-0.29
GTTTGCACGTGTGAGT	0.12
GGATACACGTGTTCGG	0.16
TTACTCACGTGGGATT	-0.01
GGTTCCACGTGTTTCG	0.14
TGTGTCACGTGATGTG	0.15
CCTAGCACGTGTGGGG	-0.05
TTTTGCACGTGTTATC	-0.02
TCTGCCACGTGGGTGT	-0.18
GTTCGCACGTGCGGGG	-0.06
GTGATCACGTGTGTGT	0.14
TATTTCACGTGTACTT	0.22
GGCGTCACGTGGATGG	0.13
GTAGGCACGTGTGAAA	0.14
TGTGGCACGTGTGTTC	0

Sequence	relative binding free energy [kcal/mol]
ATGTACACGTGAATTT	0.29
TGTGGCACGTGGGGCT	-0.18
GAAAGCACGTGAGCGT	0.35
TCGTTCACGTGTGAGA	0.33
GGACGCACGTGGCTGT	-0.05
GGGATCACGTGGGGAA	0.05
TTAAACACGTGTTTAT	-0.14
CGTGTCACGTGTTGGA	0.32
GGTTTCACGTGAAAAT	0.49
ATGCTCACGTGTGATT	0.31
ATTTACACGTGTGTGA	0.08
TACGGCACGTGGGGTG	-0.28
ATATCCACGTGTGTGG	0.02
ACATGCACGTGTGGTT	-0.01
CATTTCACGTGTTCGT	0.13
TTATGCACGTGTAGCT	0.04
GGTATCACGTGAGTGC	0.34
ATGTGCACGTGTGGTA	-0.09
AGGGACACGTGTTCTG	0.12
AGTTACACGTGATGGG	0.25
ATATGCACGTGTTTTT	0
GGGTGCACGTGGCCTT	-0.08
